Data as given in PubChem BioAssay AID1745853 (National Center for Advancing Translational Sciences (NCATS), 2022).
Where “and” joins values, the source holds several entries; their conditions need not be identical. Identical values can stand only once. The list shows a part of the results. The main result of the screen is listed elsewhere. These columns were measured beside it and carry no call.

Assays:
Assay in all cases: Primary Screen for Target Class Profiling of Small Molecule Inhibitors of Methyltransferases
[1] = target: Glycine N-methyltransferase (Homo sapiens) (UniProt Q14749); conditions: purified enzyme, MTase-Glo SAH luminescence; measured here: GNMT inhibition; at 40 µM; stronger effect = lower value
Method in brief: (§1)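 Each enzyme was assayed with SAM and its substrate. SAH formation detected by MTase-Glo luminescence; single-point 40 uM screen[…].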

[2] = target: Guanidinoacetate N-methyltransferase (Homo sapiens) (UniProt Q14353); conditions: purified enzyme, MTase-Glo SAH luminescence; measured here: GAMT inhibition; at 40 µM; stronger effect = lower value
Method in brief: as §1

[3] = target: Histamine N-methyltransferase (Homo sapiens) (UniProt P50135); conditions: purified enzyme, MTase-Glo SAH luminescence; measured here: HNMT inhibition; at 40 µM; stronger effect = lower value
Method in brief: as §1

[4] = target: Nicotinamide N-methyltransferase (Homo sapiens) (UniProt P40261); conditions: purified enzyme, MTase-Glo SAH luminescence; measured here: NNMT inhibition; at 40 µM; stronger effect = lower value
Method in brief: as §1

[5] = target: Phenylethanolamine N-methyltransferase (Homo sapiens) (UniProt P11086); conditions: purified enzyme, MTase-Glo SAH luminescence; measured here: PNMT inhibition; at 40 µM; stronger effect = lower value
Method in brief: as §1
% is set by controls: 0 for no effect and ±100 for the full control effect.

SMILES	activity change, negative = inhibition [1]	activity change, negative = inhibition [2]	activity change, negative = inhibition [3]	activity change, negative = inhibition [4]	activity change, negative = inhibition [5]
COc1ccc(-c2cc(N3CCC(NC(=O)c4ccncc4)C3)n[nH]2)cc1 (stereo not given)	-12.6%	-8.66%	-4.71%	-15.6%	-14.2%
CC(C)CCn1c(=O)c2ccccc2n2c(CCC(=O)NCc3cccnc3)nnc12	2.13%	2.06%	7.62%	1.29%	2.55%
C=CCNC(=O)N[C@H]1C[C@H]2C(=O)Nc3ccc(/C=C/c4ccc(OC)cc4)cc3C(=O)N2C1	-11.4%	-10.6%	-8.27%	-7.29%	-6.9%
FC(F)(F)c1ccc(N2C3CCC2CN(Cc2ccc(-c4cccs4)cc2)C3)cc1	-1.07%	2.97%	-0.164%	0.053%	1.25%
Cc1nc2c([nH]1)c(=O)n(C)c(=O)n2Cc1ccco1	-5.08%	7.19%	-0.238%	-3.67%	7.66%
Cc1ccc(NC(=O)N2CCn3c(C)ccc3C2C(C)C)c(C)c1 (stereo not given)	-2.47%	3.17%	-7.56%	-10.6%	-7.24%
CCOC(=O)CNC(=O)N1Cc2c(sc3c2CCCC3)-n2cccc2C1c1ccc(C(C)C)cc1 (stereo not given)	-0.789%	1.31%	4.13%	-1.56%	8.66%
O=c1ccc(NS(=O)(=O)c2ccccc2)c2n1C[C@H]1C[C@@H]2CN(S(=O)(=O)c2ccccc2)C1	-5.23%	-6.79%	-2.75%	-10.2%	-7.47%
CN1C(=O)c2cc(NC(=O)c3cccc(N(C)C)c3)ccc2N2CCN=C12	-8.2%	0%	3.37%	9.52%	-3.61%
COCCN1C(=O)c2cc3sccc3n2CC1(C)C(=O)NC1CCCCC1C (stereo not given)	-0.797%	0.272%	3.91%	-8.57%	0.278%
CSc1cccc(N2C(=O)c3cc(-c4cccs4)nn3CC2(C)C(=O)NC2CCCCC2)c1 (stereo not given)	-0.913%	0%	1.5%	-1.82%	-1.32%
C[C@H](Nc1ncnc2nc[nH]c12)c1cc2cccc(Cl)c2c(=O)n1-c1ccccc1	-12.1%	-14.9% and -4.4%	-1.09%	-20.3% and -20.6%	-4.38% and -0.107%
CC1(C(=O)NC2CCCC2)Cn2c(ccc2-c2ccco2)C(=O)N1CCN1CCCCCC1 (stereo not given)	-6.73%	3.52%	-9.79%	-6.57%	-1.3%
CN(C)c1ccc(CNC(=O)Cn2c(=O)oc3cc(S(=O)(=O)NCc4ccccc4)ccc32)cc1	6.19%	0.465%	2.65%	1.23%	3.61%
COc1cccc([S+](=O)([O-])N2CCC3(CC(C)=NO3)C2)c1 (stereo not given)	-12.1%	-11.1%	-2.14%	-8.15%	-5.12%
O=C1CSc2ccccc2N1Cc1cccc(C(F)(F)F)c1	0.352%	-10.3%	-4.44%	-55%	-18.4%
COc1ccc(NS(=O)(=O)c2cc3[nH]c(=O)[nH]c3cc2Cl)cc1	0.247%	9.61%	7.16%	5.78%	-19%
Cc1cc(C(=O)N2CCCn3ccnc3C2c2ccccc2)n(C)n1 (stereo not given)	-3.59%	-1.8%	-0.8%	-5.7%	11.8%
CCC1(C)CC(=O)NC1=O (stereo not given)	-1.28%	4.15%	0.156%	-8.16%	2.41%

SMILES	activity change, negative = inhibition [1]	activity change, negative = inhibition [2]	activity change, negative = inhibition [3]	activity change, negative = inhibition [4]	activity change, negative = inhibition [5]
O=C(c1cnccn1)N1CCN2C(=O)N(C3CCOCC3)C[C@H]2C1	1.17%	0.402%	-1.25%	-1.85%	-1.09%
CCC1C(=O)OC23C=C[C@@H]4C(C(=O)O)=CO[C@H](O[C@@H]12)[C@@H]43 (stereo not given in full)	-0.535%	-3.3%	7.81%	-14%	-6.45%
CC(C)(O)CC(=O)NCCn1ccc2ncnc(Nc3ccc(Oc4cccc(C(F)(F)F)c4)c(Cl)c3)c21	-4.84%	10.6%	-0.546%	-32.3%	-6.06%
Cc1nc(CC(=O)N2CCCC3(CCC(=O)N(CCC(C)C)C3)C2)cs1 (stereo not given)	6.08%	0.919%	2%	-1.4%	-1.08%
CCc1n[nH]c(CC2CCN(C(=O)C3CC3)CC2)n1	-0.26%	0.6%	2.9%	-2.19%	-0.1%
CCC(C)NC(=O)c1ccc2c(=O)n(C)c3nn(CC(=O)c4ccc(Cl)cc4)c(=O)n3c2c1 (stereo not given)	1.7%	0.789%	4.94%	0.286%	6.59%
CC(C)CCNC(=O)C1(C)Cn2nc(C(=O)NCc3ccc(OC(C)C)cc3)cc2C(=O)N1C (stereo not given)	-7.77%	3.72%	-5.49%	-1.85%	0.286%
CCOC(=O)C1CCN(C(=O)Cn2c(=O)oc3cc(S(=O)(=O)N4CCCC4)ccc32)CC1	-4.82%	1.17%	-5.97%	-0.102%	-7.15%
COC1=CC(=O)C[C@@H](C)[C@]12Oc1cc(OC)cc(OC)c1C2=O	0%	2.57%	-1.8%	-10.1%	3.01%
Cc1c(C(=O)N2CCOc3ccc(-c4ccc(N)nc4)cc3C2)ccc(S(C)(=O)=O)c1F	-11.6%	-4.94%	-24.9%	-18.9%	-8%
CN(C)CCCCCCNC(=O)c1cccc(-c2cc(O)c3ncccc3c2)c1	-4.58% and -1.76%	11.6%	-31% and -64.4%	-9.53% and -3.93%	-3.94% and 3.94%
CC1=C(CCC(C)O[C@@H]2O[C@H](CO)[C@@H](O)[C@H](O)[C@H]2O)C(C)(C)CCC1=O (stereo not given in full)	0.196%	2.54%	9.09%	-9.95%	-1.24%
Cc1noc(-c2ccc(N3CCN(Cc4nccn4C)CC3)nc2)n1	-7.92%	-10%	-6.68%	-16.8%	-11.8%
OC[C@H]1NC[C@@H](O)[C@@H]1O	3.4%	9.01%	5.38%	-2.36%	7.81%
COCCNC(=O)c1cc2n(n1)CC(C)(C(=O)NC1CCCCCC1)N(C)C2=O (stereo not given)	8.93%	3.13%	9.97%	9.76%	1.71%
NC(=S)c1ccc[n+]([C@@H]2O[C@@H](COP(=O)([O-])OP(=O)(O)OC[C@H]3O[C@@H](n4cnc5c(N)ncnc54)[C@H](OP(=O)(O)O)[C@@H]3O)C(O)C2O)c1 (stereo not given in full)	24.3%	85.7%	19.8%	51.7%	26.1%
Cc1ccccc1NC(=O)CSc1nnc2n(C)c(=O)c3ccc(C(=O)NC4CCCCC4)cc3n12	2.31%	0.437%	-2.61%	0.78%	5.56%
C=C[C@@]1(C)CCC2=C([C@H]1OC(C)=O)[C@H](OC(C)=O)CC1[C@](C)(C(=O)OC)CC[C@H](OC(C)=O)[C@]21C (stereo not given in full)	0.959%	-0.681%	7.83%	-16.7%	0.277%
CC1CC(O)CC(C)(C)C1(O)CCO (stereo not given)	0%	2.07%	1.24%	-8.24%	4.51%
